According to PubChem BioAssay AID1768 (National Center for Advancing Translational Sciences (NCATS), 2009):
About 620 (0.23%) of roughly 270,000 compounds were called active. This list was built around the results that the source calls inconclusive (neither active nor inactive); the mix of calls is not that of the screen. The call rests on the fitted dose curve; in most records, active means well fitted inhibition curve with a large enough effect in the polarisation, with a control signal flat (not every such curve was filed as active); inconclusive means small, poorly fitted or top-dose-only effect, or effect the other way, or a change in a side signal; inactive means no such curve, though single readings can be large or run the other way; the % refers to the polarisation. A potency beside an inconclusive call is a rough fit, not a confirmed value. “Side channel” marks fits to a control or component signal instead of the main read-out.
Potency means the concentration at half of the fitted maximal effect; tags describe the fitted curve by direction and shape or compound fluorescence and quenching.
Wherever FP activity change, negative = inhibition is given: % of control where 0% means no effect.

The compounds below were run against Menin (Homo sapiens) (UniProt O00255) (assay: qHTS Assay for Inhibitors Targeting the Menin-MLL Interaction in MLL Related Leukemias: Competition With Texas Red Labeled MLL-derived Mutant Peptide). Details: fluorescence polarization; FP activity change, negative = inhibition: at 61.6 µM (top of the series).
Chain of UniProt O00255 (O00255 whole entry, looked up): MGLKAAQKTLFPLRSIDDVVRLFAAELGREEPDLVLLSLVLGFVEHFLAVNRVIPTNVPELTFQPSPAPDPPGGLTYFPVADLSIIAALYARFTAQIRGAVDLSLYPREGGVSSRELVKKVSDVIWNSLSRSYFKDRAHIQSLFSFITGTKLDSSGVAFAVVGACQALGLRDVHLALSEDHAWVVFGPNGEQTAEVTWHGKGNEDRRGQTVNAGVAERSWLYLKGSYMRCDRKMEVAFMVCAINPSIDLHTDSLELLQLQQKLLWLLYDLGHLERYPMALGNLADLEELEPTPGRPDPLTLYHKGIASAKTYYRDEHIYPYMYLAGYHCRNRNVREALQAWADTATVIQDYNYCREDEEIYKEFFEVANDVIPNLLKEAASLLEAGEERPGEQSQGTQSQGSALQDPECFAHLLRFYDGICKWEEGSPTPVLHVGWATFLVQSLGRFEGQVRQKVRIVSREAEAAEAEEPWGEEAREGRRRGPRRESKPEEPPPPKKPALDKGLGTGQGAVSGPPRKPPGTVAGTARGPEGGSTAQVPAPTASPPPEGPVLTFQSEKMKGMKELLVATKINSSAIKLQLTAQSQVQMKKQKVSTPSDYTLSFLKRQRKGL
For `CS(=O)(=O)N(CC(O)Cn1c2ccccc2c2ccccc21)c1ccccc1` (centres undefined), the “FP activity change, negative = inhibition” value was inactive: 34%. In the case of `N#C/C(=C\C1CC=CCC1)c1nc2ccccc2[nH]1` (centres undefined), the “FP activity change, negative = inhibition” value is reported as inactive: 29.4%. With `CCCCCCn1c(SCC(=O)c2c(N)n(C)c(=O)n(C)c2=O)nc2ccccc21` the “FP activity change, negative = inhibition” value was inactive: 0.514%. `COc1ccc(CCC(=O)Nc2ccc(-c3noc(-c4ccc(OC)c(OC)c4)n3)cc2)cc1` was tested, and the Potency was inconclusive: 2.82 µM [quencher, side channel, full curve, poor fit]. For `O=C(Nc1ccc(Cl)c(Cl)c1)N1CCSC1c1ccco1` (centres undefined), the Potency was inconclusive: 20 µM [quencher, side channel, partial curve]. `C=CCNC(=S)Nc1ccc2nsnc2c1` was tested, and the “FP activity change, negative = inhibition” value was inactive: 17.6%. With `CC1=C(C(=O)Nc2ccccc2)C(c2ccccn2)n2ncnc2N1` (centres undefined) the Potency was inconclusive: 25.1 µM [inhibitor, single point]. For `COc1ccc(O)c(C(=O)CC(=O)c2ccccc2C)c1`, the Potency was inconclusive: 22.4 µM [quencher, side channel, partial curve]. For `Cc1cccc(-c2cnn(-c3cccc([N+](=O)[O-])c3)c2N)c1`, the Potency was inconclusive: 39.8 µM [quencher, side channel, single point]. In the case of `Nc1c(C(=O)NCc2ccccc2)c2nc3ccccc3nc2n1-c1ccc2c(c1)OCO2`, the Potency is reported as inconclusive: 17.8 µM [quencher, side channel, partial curve]. With `CCc1nnc(NC(=O)CCc2c[nH]c3ccccc23)s1` the Potency was inconclusive: 35.5 µM [quencher, side channel, single point]. `COc1ccc(-c2cc(C(F)(F)F)c3c(=O)n(-c4ccccc4)[nH]c3n2)cc1` was tested, and the Potency was inconclusive: 15.8 µM [quencher, side channel, partial curve]. In the case of `Cc1ccc(N2CCN(/N=C/c3sccc3C)CC2)cc1`, the Potency is reported as inconclusive: 39.8 µM [quencher, side channel, single point]. `CCCCCCOc1ccc(C(=N)N(CCCC)CCCC)c2ccccc12` was tested, and the Potency was inconclusive: 35.5 µM [inhibitor, partial curve]. In the case of `Cc1cc2oc(=O)cc(CN(C)Cc3ccccc3)c2cc1C(C)C`, the Potency is reported as inconclusive: 12.6 µM [fluorescent, side channel, partial curve]. In the case of `N#Cc1cccc(C(=O)N(CCc2ccccc2)Cc2cccs2)c1`, the Potency is reported as inconclusive: 39.8 µM [inhibitor, single point]. `O=C(Nc1ccccc1Cl)C1CCCN(S(=O)(=O)c2ccc(-n3cnnn3)cc2)C1` (centres undefined) was tested, and the Potency was inconclusive: 35.5 µM [fluorescent, partial curve]. For `CSc1ccccc1NC(=O)c1ccc(CN2CCOCC2)cc1`, the “FP activity change, negative = inhibition” value was inactive: 18.4%. `Cc1cccc(NC(=S)N/N=C2\CC(C)(C)Oc3ccc(O)cc32)c1` was tested, and the Potency was inconclusive: 15.8 µM [quencher, side channel, partial curve]. For `COc1ccc(-n2nnc3c(=O)n(Cc4cc(C)ccc4C)cnc32)cc1`, the Potency was inconclusive: 0.708 µM [inhibitor, full curve]. `Cc1nc(N2CCN(C)CC2)c2cc(-c3ccccc3)sc2n1` was tested, and the Potency was inconclusive: 28.2 µM [inhibitor, single point]. `Cc1ccc(NC(=O)c2cc(=O)c3ccccc3o2)c(C)c1` was tested, and the “FP activity change, negative = inhibition” value was inactive: 0.857%. In the case of `C/C1=C2/[N-]C(C(CC(N)=O)[C@@]2(C)CCC(=O)NCC(C)OP(=O)([O-])O[C@H]2[C@@H](O)[C@@H](n3cnc4cc(C)c(C)cc43)O[C@@H]2CO)[C@]2(C)N=C(/C(C)=C3N=C(/C=C4N=C1C(CCC(N)=O)C\4(C)C)[C@@H](CCC(N)=O)[C@]\3(C)CC(N)=O)[C@@H](CCC(N)=O)[C@]2(C)CC(N)=O.CC(=O)O.[Co]` (some centres undefined), the Potency is reported as inconclusive: 12.6 µM [quencher, side channel, partial curve]. With `Cc1c(/C=N\NC(=O)C2COc3ccccc3O2)c2ccccc2n1C` (centres undefined) the “FP activity change, negative = inhibition” value was inactive: 11.4%. In the case of `CCN(CC)c1ccc(-n2c(O)c(C=C3N=c4ccccc4=N3)sc2=S)cc1`, the Potency is reported as inconclusive: 2.51 µM [quencher, side channel, full curve]. With `Cc1ccccc1NCc1ccccc1O` the Potency was inconclusive: 11.2 µM [inhibitor, partial curve]. `Cc1nc(N2CCN(C(=O)c3ccco3)CC2)c2c3c(sc2n1)CC(C)CC3` (centres undefined) was tested, and the Potency was inconclusive: 2.51 µM [fluorescent, side channel, full curve]. In the case of `COc1ccc(-n2nc(C(=O)NCC(=O)NCCC3=CCCCC3)c3ccccc3c2=O)c(OC)c1`, the Potency is reported as inconclusive: 39.8 µM [fluorescent, side channel, single point]. In the case of `CC(c1nc2ccccc2n1Cc1ccccc1)N1CCCCC1` (centres undefined), the Potency is reported as inconclusive: 20 µM [fluorescent, side channel, partial curve]. In the case of `Cc1cc(O)c(C(=O)Cc2csc(C)n2)c(O)c1`, the “FP activity change, negative = inhibition” value is reported as inactive: 6.96%. For `Cc1ccc(C2Nc3ccccc3-c3nc4ccccc4n32)o1` (centres undefined), the Potency was inconclusive: 39.8 µM [quencher, side channel, single point]. For `Nc1ccc2nc(-c3cccs3)[nH]c2c1`, the “FP activity change, negative = inhibition” value was inactive: -12.2%. In the case of `O=C(CCN1C(=O)/C(=C/c2ccc(F)cc2)SC1=S)Nc1cc([N+](=O)[O-])ccc1O`, the Potency is reported as inconclusive: 22.4 µM [quencher, side channel, partial curve]. With `COc1ccc(Cn2cnc3c(N)c(C)c(C)cc32)cc1` the Potency was inconclusive: 14.1 µM [inhibitor, partial curve, poor fit]. In the case of `COc1ccc(-c2nnc(SC(C(=O)c3c[nH]c4ccccc34)c3ccccc3)n2N)cc1OC` (centres undefined), the Potency is reported as inconclusive: 25.1 µM [inhibitor, single point]. For `COc1ccc([N+](=O)[O-])cc1NC(=O)C(C)N(C)Cc1cccc(OC)c1OC` (centres undefined), the “FP activity change, negative = inhibition” value was inactive: 2.61%. With `O=C(Nc1ccc2c(c1)oc1ccccc12)c1ccc(Br)o1` the Potency was inconclusive: 20 µM [quencher, side channel, partial curve]. For `CCc1ccc(CN(C)C(=O)c2ccc3c(c2)OCCO3)cc1`, the Potency was inconclusive: 17.8 µM [fluorescent, side channel, partial curve]. For `Cc1ccc(N(C(C)C(=O)N2CCN(Cc3ccccc3)CC2)S(C)(=O)=O)cc1` (centres undefined), the Potency was inconclusive: 2.51 µM [inhibitor, partial curve].
